# From the supplement of paper PMC8728848
# The other results are listed elsewhere or left out.
# Legend:
# Assay in all cases: glycan array binding signal (z-score within array); higher = stronger binding
# Conditions in all cases: glycan notation: IUPAC condensed, linker removed
# [1] = biological target: Gal(b1-2)Gal
# Procedure, shortened: (§1)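 Glycan array data came from 3228 arrays in the Consortium for Functional Glycomics database, and only arrays with an available protein sequence were kept. Glycan names were put into IUPAC-condensed notation, and columns mapping to the same glycan were averaged. The binding signal is a within-array Z-score, averaged across arrays of one protein sequence run at different concentrations or buffers and across linkers. A negative Z-score can be read as non-binding.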
# [2] = biological target: Gal(b1-3)Gal
# Procedure, shortened: as §1
# [3] = biological target: Gal(b1-3)Gal(b1-4)GlcNAc
# Procedure, shortened: as §1
# [4] = biological target: Gal(b1-3)GalNAc
# Procedure, shortened: as §1
# [5] = biological target: Gal(b1-3)GalNAc(a1-3)[Fuc(a1-2)]Gal(b1-4)Glc
# Procedure, shortened: as §1
# [6] = biological target: Gal(b1-3)GalNAc(a1-3)[Fuc(a1-2)]Gal(b1-4)GlcNAc
# Procedure, shortened: as §1
# [7] = biological target: Gal(b1-3)GalNAc(b1-3)Gal
# Procedure, shortened: as §1
# [8] = biological target: Gal(b1-3)GalNAc(b1-3)Gal(a1-4)Gal(b1-4)Glc
# Procedure, shortened: as §1
# [9] = biological target: Gal(b1-3)GalNAc(b1-4)Gal(b1-4)Glc
# Procedure, shortened: as §1
# [10] = biological target: Gal(b1-3)GalNAc(b1-4)[Neu5Ac(a2-3)]Gal(b1-4)Glc
# Procedure, shortened: as §1
# [11] = biological target: Gal(b1-3)GlcNAc
# Procedure, shortened: as §1
# [12] = biological target: Gal(b1-3)GlcNAc(a1-3)Gal(b1-4)GlcNAc
# Procedure, shortened: as §1
# [13] = biological target: Gal(b1-3)GlcNAc(a1-6)Gal(b1-4)GlcNAc
# Procedure, shortened: as §1
# [14] = biological target: Gal(b1-3)GlcNAc(b1-2)Man
# Procedure, shortened: as §1
# [15] = biological target: Gal(b1-3)GlcNAc(b1-2)Man(a1-3)[Gal(b1-3)GlcNAc(b1-2)Man(a1-6)]Man(b1-4)GlcNAc(b1-4)GlcNAc
# Procedure, shortened: as §1
# [16] = biological target: Gal(b1-3)GlcNAc(b1-2)Man(a1-3)[Gal(b1-3)GlcNAc(b1-2)Man(a1-6)]Man(b1-4)GlcNAc(b1-4)[Fuc(a1-6)]GlcNAc
# Procedure, shortened: as §1
# [17] = biological target: Gal(b1-3)GlcNAc(b1-2)Man(a1-3)[GlcNAc(b1-4)][Gal(b1-3)GlcNAc(b1-2)Man(a1-6)]Man(b1-4)GlcNAc(b1-4)GlcNAc
# Procedure, shortened: as §1
# [18] = biological target: Gal(b1-3)GlcNAc(b1-2)[Gal(b1-3)GlcNAc(b1-6)]Man(a1-6)[Gal(b1-3)GlcNAc(b1-2)Man(a1-3)]Man(b1-4)GlcNAc(b1-4)GlcNAc
# Procedure, shortened: as §1
# [19] = biological target: Gal(b1-3)GlcNAc(b1-3)Gal(b1-3)GlcNAc
# Procedure, shortened: as §1
# [20] = biological target: Gal(b1-3)GlcNAc(b1-3)Gal(b1-4)Glc
# Procedure, shortened: as §1
# [21] = biological target: Gal(b1-3)GlcNAc(b1-3)Gal(b1-4)GlcNAc
# Procedure, shortened: as §1
# [22] = biological target: Gal(b1-3)GlcNAc(b1-3)Gal(b1-4)GlcNAc(b1-2)Man(a1-3)[Gal(b1-3)GlcNAc(b1-3)Gal(b1-4)GlcNAc(b1-2)Man(a1-6)]Man(b1-4)GlcNAc(b1-4)GlcNAc
# Procedure, shortened: as §1
# [23] = biological target: Gal(b1-3)GlcNAc(b1-3)Gal(b1-4)GlcNAc(b1-2)[Gal(b1-3)GlcNAc(b1-3)Gal(b1-4)GlcNAc(b1-6)]Man(a1-6)[Gal(b1-3)GlcNAc(b1-3)Gal(b1-4)GlcNAc(b1-2)Man(a1-3)]Man(b1-4)GlcNAc(b1-4)[Fuc(a1-6)]GlcNAc
# Procedure, shortened: as §1
# [24] = biological target: Gal(b1-3)GlcNAc(b1-3)Gal(b1-4)GlcNAc(b1-3)Gal(b1-4)GlcNAc(b1-2)[Gal(b1-3)GlcNAc(b1-3)Gal(b1-4)GlcNAc(b1-3)Gal(b1-4)GlcNAc(b1-6)]Man(a1-6)[Gal(b1-3)GlcNAc(b1-3)Gal(b1-4)GlcNAc(b1-3)Gal(b1-4)GlcNAc(b1-2)Man(a1-3)]Man(b1-4)GlcNAc(b1-4)[Fuc(a1-6)]GlcNAc
# Procedure, shortened: as §1
# [25] = biological target: Gal(b1-3)GlcNAc(b1-3)Gal(b1-4)GlcNAc(b1-6)[Gal(b1-3)GlcNAc(b1-3)]Gal(b1-4)Glc
# Procedure, shortened: as §1
# [26] = biological target: Gal(b1-3)GlcNAc(b1-3)Gal(b1-4)[Fuc(a1-3)]GlcNAc
# Procedure, shortened: as §1
# [27] = biological target: Gal(b1-3)GlcNAc(b1-3)Gal(b1-4)[Fuc(a1-3)]GlcNAc(b1-6)[Gal(b1-3)GlcNAc(b1-3)]Gal(b1-4)Glc
# Procedure, shortened: as §1
# [28] = biological target: Gal(b1-3)GlcNAc(b1-3)GalNAc
# Procedure, shortened: as §1
# [29] = biological target: Gal(b1-3)GlcNAc(b1-6)Gal(b1-4)GlcNAc
# Procedure, shortened: as §1
# [30] = biological target: Gal(b1-3)GlcNAc(b1-6)GalNAc
# Procedure, shortened: as §1
# [31] = biological target: Gal(b1-3)GlcNAc(b1-6)[Gal(b1-3)]GalNAc
# Procedure, shortened: as §1
# [32] = biological target: Gal(b1-3)GlcNAc6S
# Procedure, shortened: as §1
# [33] = biological target: Gal(b1-3)[Fuc(a1-4)]GlcNAc
# Procedure, shortened: as §1
# [34] = biological target: Gal(b1-3)[Fuc(a1-4)]GlcNAc(b1-2)Man
# Procedure, shortened: as §1
# [35] = biological target: Gal(b1-3)[Fuc(a1-4)]GlcNAc(b1-2)Man(a1-3)[Gal(b1-3)[Fuc(a1-4)]GlcNAc(b1-2)Man(a1-6)]Man(b1-4)GlcNAc(b1-4)[Fuc(a1-6)]GlcNAc
# Procedure, shortened: as §1
# [36] = biological target: Gal(b1-3)[Fuc(a1-4)]GlcNAc(b1-3)Gal(b1-3)[Fuc(a1-4)]GlcNAc
# Procedure, shortened: as §1
# [37] = biological target: Gal(b1-3)[Fuc(a1-4)]GlcNAc(b1-3)Gal(b1-4)[Fuc(a1-3)]GlcNAc
# Procedure, shortened: as §1
# [38] = biological target: Gal(b1-3)[Fuc(a1-4)]GlcNAc(b1-6)GalNAc
# Procedure, shortened: as §1
# [39] = biological target: Gal(b1-3)[GlcNAc(b1-6)]GalNAc
# Procedure, shortened: as §1
# [40] = biological target: Gal(b1-3)[Neu5Ac(a2-6)]GalNAc
# Procedure, shortened: as §1
# [41] = biological target: Gal(b1-3)[Neu5Ac(a2-6)]GlcNAc(b1-4)Gal(b1-4)Glc
# Procedure, shortened: as §1
# [42] = biological target: Gal(b1-3)[Neu5Ac(b2-6)]GalNAc
# Procedure, shortened: as §1
# [43] = biological target: Gal(b1-4)Gal
# Procedure, shortened: as §1
# [44] = biological target: Gal(b1-4)GalNAc(a1-3)[Fuc(a1-2)]Gal(b1-4)GlcNAc
# Procedure, shortened: as §1
# [45] = biological target: Gal(b1-4)GalNAc(b1-3)[Fuc(a1-2)]Gal(b1-4)GlcNAc
# Procedure, shortened: as §1
binder,measurement,setting,value
Arath Fbox LD (Arabidopsis thaliana) (protein) EFSVWLEKASGKRCLMLSAMNLSIIWGDNPQYWQWIPIPESRFEKVAKLRDVCWFEIRGRTNTRVLSPRTRYSAYIVFKGVDKCYGFQNVAIEAAVGVVGQEPSRRLICFSEAIRRGRRNVVKPKQREDGWMEIELGEFFNDGGIMDNDEIEMSALETKQLNRKCGLIIQGIEIRPAKILAAASFLEQKLISEEDLNSAVDHHHHHH,glycan array binding signal (z-score),[1],2.67
same,glycan array binding signal (z-score),[2],-0.517
same,glycan array binding signal (z-score),[3],0.14
same,glycan array binding signal (z-score),[4],-0.028
same,glycan array binding signal (z-score),[5],-0.368
same,glycan array binding signal (z-score),[6],-0.331
same,glycan array binding signal (z-score),[7],-0.645
same,glycan array binding signal (z-score),[8],-0.575
same,glycan array binding signal (z-score),[9],-0.506
same,glycan array binding signal (z-score),[10],-0.557
same,glycan array binding signal (z-score),[11],-0.396
same,glycan array binding signal (z-score),[12],-0.525
same,glycan array binding signal (z-score),[13],-0.468
same,glycan array binding signal (z-score),[14],-0.473
same,glycan array binding signal (z-score),[15],2.33
same,glycan array binding signal (z-score),[16],-0.592
same,glycan array binding signal (z-score),[17],-0.473
same,glycan array binding signal (z-score),[18],0.62
same,glycan array binding signal (z-score),[19],-0.605
same,glycan array binding signal (z-score),[20],-0.508
same,glycan array binding signal (z-score),[21],-0.462
same,glycan array binding signal (z-score),[22],-0.513
same,glycan array binding signal (z-score),[23],0.467
same,glycan array binding signal (z-score),[24],-0.067
same,glycan array binding signal (z-score),[25],-0.659
same,glycan array binding signal (z-score),[26],-0.574
same,glycan array binding signal (z-score),[27],-0.626
same,glycan array binding signal (z-score),[28],0.072
same,glycan array binding signal (z-score),[29],-0.617
same,glycan array binding signal (z-score),[30],-0.42
same,glycan array binding signal (z-score),[31],0.663
same,glycan array binding signal (z-score),[32],-0.192
same,glycan array binding signal (z-score),[33],-0.102
same,glycan array binding signal (z-score),[34],4.02
same,glycan array binding signal (z-score),[35],2.55
same,glycan array binding signal (z-score),[36],-0.603
same,glycan array binding signal (z-score),[37],-0.31
same,glycan array binding signal (z-score),[38],-0.128
same,glycan array binding signal (z-score),[39],-0.477
same,glycan array binding signal (z-score),[40],-0.238
same,glycan array binding signal (z-score),[41],-0.085
same,glycan array binding signal (z-score),[42],-0.604
same,glycan array binding signal (z-score),[43],1.31
same,glycan array binding signal (z-score),[44],-0.644
same,glycan array binding signal (z-score),[45],-0.58
